# Laboratory results taken from the supplement of paper PMC3334620.
# Over roughly 33,000 sequences, “E-score (-0.5 to 0.5)” has its median near -0.017; the highest 2% begin near 0.3. This is one part of the list.
# Target: T1, Sut1 (UniProt P53032)
# T1 sequence: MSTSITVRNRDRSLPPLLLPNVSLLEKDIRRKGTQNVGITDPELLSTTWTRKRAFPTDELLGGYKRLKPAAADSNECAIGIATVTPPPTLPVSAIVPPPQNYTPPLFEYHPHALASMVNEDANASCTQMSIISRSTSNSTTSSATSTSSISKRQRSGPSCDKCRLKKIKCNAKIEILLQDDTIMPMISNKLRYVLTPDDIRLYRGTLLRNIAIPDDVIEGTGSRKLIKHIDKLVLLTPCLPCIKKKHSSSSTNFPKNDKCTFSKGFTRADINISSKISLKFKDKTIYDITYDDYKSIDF
# Experiment: PBM E-score (8-mer binding enrichment) (E-score (-0.5 to 0.5)); higher = stronger / more preferred TF binding; most listed sequences are background and not binding sites
# Settings: protein concentration: 200 nM; construct: GST-full length
# Summary of the method: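 E-scores (a modified Wilcoxon-Mann-Whitney statistic) were assigned by the Universal PBM Analysis Suite to every ungapped eight-base word pooled with its reverse complement. The input came from universal all-10-mer Agilent arrays made double-stranded by primer extension and probed with GST-tagged yeast transcription factors at about 100-200 nM. Fluorescent anti-GST detected bound protein, and masliner normalised the scans.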
row,Sequence,PBM E-score
1,ACCCCGAA,0.332
2,AAGTCCTA,0.126
3,AAACAGGG,-0.136
4,ACTACCCC,-0.101
5,ACGATACA,0.0488
6,GTGAACAA,0.0216
7,AATCTGTC,0.133
8,ATGCGTTC,-0.039
9,AACTAGCT,-0.0237
10,GAACGGCC,0.00745
11,ATCGGAGA,0.416
12,TGTAAAAA,0.235
13,AACGCTGA,-0.0906
14,CAGGATGA,-0.163
15,CAGCGGCG,0.00849
16,CCTATCAA,0.111
17,CGCAGGAA,-0.166
18,TACTTAAA,0.171
19,CCTAGAAA,0.184
20,AGCAAAAG,-0.0977
21,CTCGATAC,0.142
22,AAGTGTAT,0.0641

row,Sequence,PBM E-score
1,AGTGCACG,-0.0643
2,CGATTGCC,-0.0206
3,CGCCGCAA,0.117
4,CGCTCCTA,-0.0375
5,ACTTGACT,0.0376
6,ATCGCGTC,-0.00961
7,AGGTTTTA,0.0564
8,CAATATGC,-0.0188
9,ACCAGTTG,0.0846
10,AACTCTAT,0.174
11,AAATTCGT,0.161
12,CTAGTCTA,-0.131
13,TCCCTGAA,-0.0211
14,AATCTTTA,0.214
15,ACTACTAA,0.114
16,CCCGGTAA,0.0833
17,CGTGTAAA,-0.0005
18,AAAAGCTC,0.163
19,CGCCACGC,-0.236
20,CCTTGGTC,-0.102
21,CTATAGAG,0.00768
22,AACCAGGA,-0.0425

row,Sequence,PBM E-score
1,CCTAGACC,-0.122
2,CTACCATA,0.035
3,GTGACCAC,-0.138
4,TAGCAAAA,0.232
5,CCCCCCAA,-0.311
6,GAGGAACA,-0.0116
7,CCCGTGGA,-0.19
8,GCGCCTAC,0.00826
9,CTGTGACC,-0.246
10,CCGCCGTA,0.0395
11,ACACGCAT,0.0295
12,CACCAAAC,-0.0324
13,ATGCGCTG,-0.121
14,ATTACTTG,0.0873
15,GATCCTTA,-0.0251
16,GGGTGGGA,-0.222
17,CTGGATCC,0.0806
18,AGAAGGCG,-0.0893
19,GAACTCTC,0.113
20,AATACGGT,-0.0683
21,GAACCTCA,-0.164
22,ACTGGTGG,-0.258

row,Sequence,PBM E-score
1,GGGTCGGA,0.292
2,CTATTACA,0.147
3,AAGGGTCC,-0.099
4,CGAGTGTC,-0.0583
5,GTGGACAA,0.206
6,AACGTCCC,-0.268
7,TAAGCCCA,-0.058
8,AAAGGAGC,-0.0321
9,CACGCTAC,-0.102
10,GAAGTACA,0.0804
11,CGATCGCC,0.0435
12,CCAGCTAC,-0.241
13,ACTAGCCA,-0.047
14,AAGACTCC,0.178
15,AGCGCCTA,0.0529
16,CAGCTTTA,0.123
17,CGGGTGTC,-0.0842
18,GGGTTTCA,0.0794
19,GCCGGATA,0.0859
20,CGCGCTAC,0.0565
21,GGTCCCGA,0.093
22,AAACTTGG,0.019

row,Sequence,PBM E-score
1,ATAGCCTC,-0.092
2,TGTCAACA,-0.0993
3,ACTCGGTG,-0.0621
4,CAGACAAC,0.0409
5,ATGTAACC,0.0203
6,CCTACTGA,-0.128
7,CTCTTTCC,-0.0939
8,ACACGGAG,0.409
9,AACTACAA,0.251
10,AGTTCCGG,0.214
11,GCCTTACC,-0.211
12,TGAGTCCA,-0.0909
13,GAAGCCTC,-0.0682
14,AATGATGT,0.212
15,GGTGCGGA,0.189
16,GCACCGTA,0.0972
17,ATTCGGAA,0.262
18,ACGAACCT,0.108
19,CGCACAAA,-0.0299
20,ATCCAGCG,-0.116
21,AGGGTACT,-0.181
